In PubChem BioAssay AID1508642 (National Center for Advancing Translational Sciences (NCATS), 2021):
About 200 (0.47%) of roughly 43,000 compounds were called active. Another 12% or so got no clear call; they are omitted. Calls come from the whole dose curve; as a rule, active = well fitted cell-killing curve with a large enough effect; inconclusive = small, poorly fitted or top-dose-only effect, or effect the other way; inactive = flat fitted curve, though single readings scatter. The list shows a part of the results.

Assay: Cell viability qHTS assay in S16 Pmp22-F2sN cells; note: nearly all actives have a fitted effect of over 65% in size
Conditions: S16 Pmp22-F2sN Schwann cells (luciferase reporters placed in the Pmp22 gene) viability, CellTiter-Glo, 24 h; series mostly up to 57.5 µM; activity change, negative = cytotoxicity: at the top concentration
Procedure, shortened: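 Seed 500-1,000 S16 Pmp22-F2sN cells per well in phenol-red-free DMEM with 10% heat-inactivated FBS; pin-add 23 nL compound; incubate 24 h at 37C; add CellTiter-Glo, wait 15 min protected from light; read luminescence.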
% is set by controls: 0 for no effect and ±100 for the full control effect.

| Structure (SMILES) | activity change, negative = cytotoxicity |
| --- | --- |
| CCc1ccc(NC(=O)CSC2=Nc3ccccc3C3=NC(CCC(=O)NCc4ccco4)C(=O)N23)cc1 (stereo not given) | inactive: 12.2% |
| Cc1ccc(C)c(Cn2cc(S(=O)(=O)c3ccc(Cl)cc3)c(=O)c3cc(F)ccc32)c1 | inactive: 11.3% |
| CCN(Cc1ccccc1)C(=O)CN(c1ccc(OC)cc1)S(=O)(=O)c1c(C)nn(C)c1C | inactive: 6.84% |
| CCc1ccc(NC(=O)c2ccc3[nH]c(C)c(C)c3c2)cc1 | inactive: -9.02% |
| COc1ccc(Cl)cc1NS(=O)(=O)c1ccc2c(c1)NC(=O)CC(=O)N2 | inactive: 2.79% |
| CCCCN(CCCC)CCNC(=O)c1cn(CC)c2ccc(S(=O)(=O)N(C)C3CCCCC3)cc2c1=O | inactive: -7.27% |
| CCOc1ccc(NC(=O)Cn2c(=O)n(-c3cccc(OC)c3)c(=O)c3c4c(sc32)CCCC4)cc1 | inactive: 8.66% |
| O=C(CCS(=O)(=O)c1cccs1)Nc1ccc(C(=O)Nc2ccccc2F)cc1 | inactive: 6.06% |
| Cc1cc2c(cc1S(=O)(=O)N1CCCCC1)OCC(=O)N2 | inactive: -5.34% |
| Cc1ccccc1NC(=O)CSc1nc2c(c(=O)n(C)c(=O)n2C)n1Cc1ccccc1F | inactive: 13.7% |
| COCCNC(=O)Cn1c(=O)n(CCCCCC(=O)NCc2ccc3c(c2)OCO3)c(=O)c2sccc21 | inactive: 0.527% |
| CC(=O)N1CCc2c(sc3c2c(=O)n(CCc2ccccc2)c(=O)n3Cc2ccc(Cl)cc2)C1 | inactive: -14.5% |
| CCOC(=O)C1CCN(C(=O)Cn2c(=O)oc3cc(S(=O)(=O)N4CCC(C)CC4)ccc32)CC1 | inactive: -0.485% |
| CCOC(=O)Cn1c(=O)n(-c2ccccc2OC)c2nc(-c3cccc(F)c3)nc(C(N)=O)c21 | inactive: 17.2% |
| Cc1ccc(-c2nnc(SCc3cccc(C#N)c3)o2)cc1 | inactive: 12.9% |
| CCOC(=O)c1ccccc1NC(=O)N(C(C)C)C1CCN(C(C)=O)CC1 | inactive: -0.745% |
| COc1ccc(-c2nc(CN3CCC(C(=O)NCc4ccccc4)CC3)c(C)o2)cc1OC | inactive: 15.9% |
| Cn1nnc2c(N3CCN(c4ccccc4Cl)CC3)ncnc21 | inactive: -1.48% |
| CC(C)(C)c1ccc(-c2nc(SCCCOc3ccccc3)n3[nH]c(=O)cc3n2)cc1 | inactive: -13.1% |
| CCCCc1ccc(NC(=O)c2ccc(=O)n(Cc3cccc(C)c3)c2)cc1 | inactive: -29.4% |
| Cc1ccc2c(c1)-c1c(cnc3cc(-c4ccccc4)nn13)CO2 | inactive: 15.7% |
| COc1ccc(-c2nc(C)c(CCNS(=O)(=O)c3cc(C)c(C)cc3C)s2)cc1 | inactive: 17.6% |
| O=C(NCCc1ccccc1)c1nnc(Cc2cccc(F)c2)o1 | inactive: -18.3% |
| CN(C)CCNC(=O)c1ccc2c(=O)n3c(nc2c1)CCCCC3 | inactive: -0.827% |

| Structure (SMILES) | activity change, negative = cytotoxicity |
| --- | --- |
| CCOC(=O)c1cccnc1SCC(=O)Nc1ccc(C)cc1C | inactive: -6.19% |
| CCC(C)NC(=O)c1ccc2c(c1)N(Cc1ccccc1)C(=O)c1ccccc1S2 (stereo not given) | inactive: 9.78% |
| COc1cccc(N2CCN(C(=O)CCc3c(C)nc4c(c3C)c(=O)n(C)c(=O)n4C)CC2)c1 | inactive: 16.3% |
| CCOc1ccc(CNC(=O)C2CCCN(S(=O)(=O)c3ccc4c(ccn4C)c3)C2)cc1 (stereo not given) | inactive: -21.3% |
| CC(C)Oc1ccc(CNC(=O)c2cc3ccccn3n2)cc1 | inactive: -10.5% |
| Cc1ccc(CCNC(=O)CCCn2nc(C)c3c(C)n(-c4ccccc4)nc3c2=O)cc1 | inactive: 13.1% |
| COc1cccc(-c2cc(C(=O)Nc3cc(Cl)ccc3O)on2)c1 | inactive: -10.4% |
| Cc1ccc(-n2nnnc2CNC(=O)C(C)(C)C)cc1C | inactive: -0.869% |
| Cc1nc(SC(C)C(=O)Nc2ccccc2C)cc(-c2ccccc2)n1 (stereo not given) | inactive: -8.11% |
| Cc1ccc(NC(=O)CN(C)S(=O)(=O)c2ccc3c(c2)n(C)c(=O)c(=O)n3C)cc1C | inactive: -0.0494% |
| Cc1ccc(-c2nc3c4ccccc4n(CC(=O)N4CCN(c5ccccc5F)CC4)c(=O)n3n2)cc1 | inactive: -2.34% |
| CCn1c2ccccc2c2nnc(SCC(=O)O)nc21 | inactive: 0.138% |
| Cc1ccccc1C(=O)c1cccn1CC(=O)NCc1ccccc1 | inactive: -0.296% |
| CCOc1ccc(CCNC(=O)Cn2nc(C)n3c(cc4occc43)c2=O)cc1OCC | inactive: 0.0431% |
| Cc1ccc(C)c(NC(=O)CN2C(=O)CCc3ccccc32)c1 | inactive: 12.1% |
| Cc1ccc(S(=O)(=O)N(CC(O)Cn2c3ccccc3c3ccccc32)c2cccc(C(N)=O)c2)cc1 (stereo not given) | inactive: -12.8% |
| CCc1ccc(NC(=O)c2ccc3c(O)c(S(=O)(=O)c4ccc(Cl)cc4)c(=O)[nH]c3c2)cc1 | inactive: -3.58% |
| Cc1cccc(OC(C)C(=O)Nc2ncn[nH]2)c1 (stereo not given) | inactive: 6.94% |
| CCCCN(CC)CCCNC(=O)c1sc2nc(C)cc(C)c2c1-n1cccc1 | inactive: -2.43% |
| COc1ccc(CN(C(=O)COc2ccccc2OC)C2CCS(=O)(=O)C2)cc1 (stereo not given) | inactive: 12.2% |
| CCOC(=O)C1CCCN(S(=O)(=O)c2ccc(F)c(C(=O)Nc3ccc(F)c(F)c3)c2)C1 (stereo not given) | inactive: -12.5% |
| Cc1cccc2nc(-c3ccco3)c(Nc3ccc4c(c3)OCO4)n12 | inactive: -0.291% |
| CCN(CC)c1cc(C)c2cc(NC(=O)c3cccc(OC)c3)ccc2n1 | inactive: -3.67% |
| CCOC(=O)c1c(NC(=O)/C=C/c2ccc(OCC)cc2)sc(C)c1C | inactive: 8.53% |

| Structure (SMILES) | activity change, negative = cytotoxicity |
| --- | --- |
| COC(=O)C(NC(=O)CC(C)C)(Nc1nc2c(s1)CCCC2)C(F)(F)F (stereo not given) | inactive: -1.44% |
| Cc1cc(C)c(NC(=O)Cn2c(=O)n(CC(=O)NCc3ccccc3Cl)c(=O)c3sccc32)c(C)c1 | inactive: -7.85% |
| CC(=O)c1cc2c(cc1N/C(=N/S(=O)(=O)c1ccc(C)cc1)c1ccccc1)OCO2 | inactive: -5.69% |
| COC(=O)c1ccc(NC(=O)CCS(=O)(=O)c2ccc(Br)cc2)cc1 | inactive: -11.5% |
| COc1ccc(-c2cc(C(=O)O)n(Cc3ccccc3)n2)cc1 | inactive: 4% |
| COc1ccc(C(=O)NC2(C(F)(F)F)C(=O)NC(C)=C2C#N)cc1OC (stereo not given) | inactive: 3.65% |
| CCC(=O)N1CCc2cc(Br)cc(S(=O)(=O)N3CCC(C(=O)Nc4ccc(OC)cc4)CC3)c21 | inactive: -2.2% |
| O=C(CSc1nc2ccccc2nc1Cc1ccccc1)NCc1ccccc1Cl | inactive: -7.59% |
| CCc1cnc2c(c1SCC(=O)N1CCCCC1)c(=O)n(C)c(=O)n2C | inactive: 1.66% |
| CCCCOc1ccc(C(=O)NCCS(=O)(=O)N2CCN(c3ccc(F)cc3)CC2)cc1 | inactive: -0.0441% |
| CC1CCCN(CCCNC(=O)c2ccc3c(c2)N(Cc2ccccc2F)C(=O)c2ccccc2S3(=O)=O)C1 (stereo not given) | inactive: -4.88% |
| CCc1ccccc1NC(=O)Nc1c[nH]c(=O)[nH]c1=O | inactive: 4.35% |
| COc1cc(C(=O)Oc2c(Sc3ccccc3)c(C)nn2-c2ccccc2)cc(OC)c1OC | inactive: 2.72% |
| Cc1ccc(/C=C/c2onc(C)c2S(=O)(=O)N2CCC(C(=O)Nc3ccc(C)c(N(C)C)c3)CC2)cc1 | inactive: 10.7% |
| Cc1ccc(CNC(=O)CCCCCn2c(=O)[nH]c3ccccc3c2=O)cc1 | inactive: 0.248% |
| Cc1nn(-c2ccccc2)c(OC(=O)C(C)C)c1Sc1ccc(Cl)cc1 | inactive: -3.41% |
| CC(C)(C)c1ccc(NC(=O)C2CCCN(c3cnccn3)C2)cc1 (stereo not given) | inactive: -25% |
| CCOc1ccc(N2CC(NC(=O)CCc3ccccc3)CC2=O)cc1 (stereo not given) | inactive: 10.5% |
| Cc1ccccc1-c1nc(CN2CCC(C(=O)NCc3ccccc3Cl)CC2)c(C)o1 | inactive: -2.37% |
| CCc1nnc(NC(=O)CSc2nccn2-c2ccc(OC)cc2)s1 | inactive: -4.21% |
| CCn1c(C)c(C2N3CC4(C)CN2CC(C)(C3)C4=O)c2ccccc21 (stereo not given) | inactive: 7.19% |
| CSc1ccc(CCNC(=O)c2cnc3c(C)cccn3c2=O)cc1 | inactive: -2.36% |
| Cc1ccc(C)c(CN2C(=O)c3ccccc3S(=O)(=O)c3ccc(C(=O)N(C)C4CCCCC4)cc32)c1 | inactive: -3.51% |
| CC(=O)c1cc2c(cc1N/C(=N/S(=O)(=O)c1ccc(Cl)cc1)c1ccc(F)cc1)OCO2 | inactive: -3.52% |

| Structure (SMILES) | activity change, negative = cytotoxicity |
| --- | --- |
| CC(=O)c1cccc(-n2c(=O)c3c4c(sc3n(CC(=O)c3ccccc3)c2=O)CN(C(C)=O)CC4)c1 | inactive: -3.22% |
| Cc1nc(C)c(-c2ccc(SCC(=O)Nc3ccc(Br)cc3)nn2)s1 | inactive: -5.26% |
| Cc1nc(-n2nc(C)c(Cc3ccccc3Cl)c2C)sc1C(=O)Nc1ccccc1F | inactive: 11.8% |
| Cc1ccc(-c2noc(C(C)NS(=O)(=O)c3ccc(C)cc3)n2)cc1 (stereo not given) | inactive: -4.09% |
| COc1ccc(CNC(=O)Cc2c(C)c3cc4c(C)coc4c(C)c3oc2=O)cc1 | inactive: 6.18% |
| O=C(Nc1cccc(Cl)c1)c1cnc2sc(N3CCCC3)nn2c1=O | inactive: -18.4% |
| CN1C(=O)Cc2cc(S(=O)(=O)N3CCN(c4ccccc4F)CC3)ccc21 | inactive: 4.81% |
| Cc1ccc(C)c(CN2CCCN(Cc3ccc(F)cc3)S2(=O)=O)c1 | inactive: 2.98% |
| COc1ccccc1NC(=O)C(=O)NCC(c1ccc2c(c1)OCO2)N1CCOCC1 (stereo not given) | inactive: 14.1% |
| COc1ccccc1/C=C/c1nc2ccccc2n1C(C)C | inactive: -1% |
| COc1ccc(Cl)cc1NC(=O)Cc1ccc(NC(=O)N2CCCCc3ccccc32)cc1 | inactive: -0.437% |
| CCOC(=O)Cn1c(=O)n(CC2CCCO2)c2nc(-c3ccc(C)cc3)nc(C(N)=O)c21 (stereo not given) | inactive: 4.77% |
| CC(=O)c1ccc(S(=O)(=O)N2CCn3cccc3C2c2ccc(C)cc2)cc1 (stereo not given) | inactive: -7.11% |
| CC(C)c1ccc(C2=CC(c3ccc(C(C)C)cc3)n3nnnc3N2)cc1 (stereo not given) | inactive: 1.9% |
| Cc1ccc2nc3c(cc(C(=O)NCC4CCCO4)c(=N)n3C(C)C)c(=O)n2c1 (stereo not given) | inactive: -17.3% |
| Cc1ccc(CN2CCSc3ccc(C(=O)N4CCN(c5ccccc5)CC4)cc32)cc1 | inactive: -23.7% |
| COc1ccc(N2CCN(C(=O)C3CCN(S(=O)(=O)c4cccs4)CC3)CC2)cc1 | inactive: 14.5% |
| O=C(CC1N=C2c3ccccc3N=C(SCc3ccc(Cl)cc3)N2C1=O)NCc1cccs1 (stereo not given) | inactive: 6.78% |
| CCOC(=O)c1ccccc1NC(=O)CSc1nc2cn(CC)nc2c(=O)n1Cc1ccc(Cl)cc1 | inactive: -24.2% |
| Cc1ccc2c(c1)c1c(c(=O)n(-c3cccc(Cl)c3)c(=O)n1CC(=O)Nc1c(C)cccc1C)n2C | inactive: 14% |
| O=c1c2cc3c(cc2n(Cc2ccc(Cl)cc2)c(=O)n1Cc1nc(-c2ccccc2)no1)OCO3 | inactive: 1.94% |
| Cc1ccc(-n2c(Cc3ccccc3)nnc2SCc2nc(-c3cccs3)no2)cc1 | inactive: -9.85% |
| CSc1cccc(NC(=O)C2CCCN(S(=O)(=O)c3ccc4c(c3)CCCN4C(C)=O)C2)c1 (stereo not given) | inactive: -16% |
